Results on 97 compounds are retold here after PubChem BioAssay AID1159614 (National Center for Advancing Translational Sciences (NCATS), 2016).

The campaign covered roughly 45,000 compounds. About 65 (0.1%) were called active. Calls come from the whole dose curve; as a rule, active = well fitted activation curve with a large enough effect; inconclusive = small, poorly fitted or top-dose-only effect; inactive = no such curve, though single readings can be large or run the other way. Some of the results follow.

The target of the assay is Galactocerebrosidase (Homo sapiens) (UniProt P54803). In words: A Novel Cell-Based Assay to Identify Small Molecules for B -Galactocerebrosidase. Note: 0% is about no effect; nearly all actives have a fitted effect of over 65% in size. The settings on record: 145M-Twi-hGALC-G270D cells (Twitcher mouse brain line with human GALC G270D), HMU-beta-Gal fluorescence, 48 h; series mostly up to 57.5 µM; activation: at the top concentration. In a few lines: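 Mutant human GALC (G270D), stably expressed in a Twitcher mouse brain cell line lacking endogenous GALC, is measured in live-treated cells via 6-hexadecanoylamino-4-methylumbelliferyl-β-galactoside hydrolysis (0.1 mM final, pH 5.2) with fluorescent detection.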
Chain of UniProt P54803 (P54803 whole entry, looked up): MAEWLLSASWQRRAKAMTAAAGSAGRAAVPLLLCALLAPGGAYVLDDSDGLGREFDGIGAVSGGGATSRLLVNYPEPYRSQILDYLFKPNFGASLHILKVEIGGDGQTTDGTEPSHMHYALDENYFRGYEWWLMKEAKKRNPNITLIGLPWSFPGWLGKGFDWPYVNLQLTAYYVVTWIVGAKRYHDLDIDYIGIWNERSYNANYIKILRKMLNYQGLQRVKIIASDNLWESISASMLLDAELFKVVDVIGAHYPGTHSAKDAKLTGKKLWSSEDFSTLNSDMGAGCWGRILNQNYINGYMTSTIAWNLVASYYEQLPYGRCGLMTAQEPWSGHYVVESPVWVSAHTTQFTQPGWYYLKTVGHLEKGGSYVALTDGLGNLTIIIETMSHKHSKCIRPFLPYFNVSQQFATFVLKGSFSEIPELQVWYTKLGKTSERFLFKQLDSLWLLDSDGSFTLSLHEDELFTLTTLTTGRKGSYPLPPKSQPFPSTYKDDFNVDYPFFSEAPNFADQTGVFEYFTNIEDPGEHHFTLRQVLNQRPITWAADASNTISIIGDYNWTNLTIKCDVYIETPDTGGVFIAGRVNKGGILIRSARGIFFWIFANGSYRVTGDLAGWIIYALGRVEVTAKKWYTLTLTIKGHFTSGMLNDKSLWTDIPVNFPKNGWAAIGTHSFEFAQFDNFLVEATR
Regarding `O=C(NCc1ccccc1F)C1CCN(c2nn3cc(-c4ccc(F)cc4)nc3s2)CC1`, the “activation” value is inactive: -4.78%. The figure for `COc1ccccc1Nc1nn2c(=O)c3ccc(C(=O)NCCC4=CCCCC4)cc3nc2s1` is inactive: -25.4%. Under `COc1cccc(CNC(=O)c2cnc(N3CCCCC3)c3ccccc23)c1` stands inactive: -11.7%. With `O=C(Nc1ccccc1C(F)(F)F)N1CCC(CN2CCc3ccccc3C2)CC1`, the “activation” value was inactive: -7.89%.

As for `Cc1cc(C)cc(-n2c(SCC(N)=O)nc3c([nH]c4ccccc43)c2=O)c1`, the “activation” value is inactive: -13.4%. The figure for `O=C(NC1CC(=O)N(c2cccc(F)c2)C1)c1cc2ccccc2o1` (configuration not stated) is inactive: -8.5%.

In the case of `COc1ccc(C)cc1NC(=O)C(Cc1ccccc1)NS(=O)(=O)c1cccs1` (configuration not stated), the “activation” value is inactive: -26.7%. The figure for `Cc1ccc(Cn2c(C(=O)O)c(CNC3CCCC3)c3ccc(C)cc32)cc1` is inactive: 5.69%; for `Cc1ccc(OCc2ccc(-c3nc(C#N)c(NCc4ccccc4Cl)o3)o2)cc1` it is inactive: -16.3%; for `COc1ccc(Nc2ncnc3c2cnn3-c2ccc(C)cc2)cc1Cl` it is inactive: -17%. Under `CCC(=O)N1CCc2cc(Br)cc(S(=O)(=O)CCC(=O)NCc3cccc(OC)c3)c21` stands inactive: -34.9%; under `Cc1ccc2nc(-c3cccc(NC(=O)c4cccc5ccccc45)c3)oc2c1`, inactive: -23.5%; under `COCCNc1oc(/C=C/c2ccc(F)cc2)nc1C#N`, inactive: -13.3%. As to `CCOC(=O)c1ccc(CN(Cc2ccccc2C)S(=O)(=O)c2ccc(F)c(C)c2)cc1`, the “activation” value was inactive: -15.3%. The figure for `Cc1ccc(CNC(=O)CCCn2c(=O)[nH]c3ccc(Br)cc3c2=O)cc1` is inactive: -13.8%; for `Cc1cccc(Cn2cc(S(=O)(=O)c3cccc(C)c3)c(=O)c3cc(F)c(N4CCOCC4)cc32)c1` it is inactive: -4.68%. The figure for `COc1ccc2nc(C)cc(Nc3ccc(Cl)c(Cl)c3)c2c1` is inactive: -1.47%; for `CCOc1ccc(-n2c(SCC(=O)NC3CCCCC3)nc3c([nH]c4ccccc43)c2=O)cc1` it is inactive: -21.2%; for `Cc1ccc(-n2c(=O)c3c(cnn3C)n(CC(=O)Nc3ccccc3C)c2=O)cc1` it is inactive: -13.3%. The figure for `O=C(Oc1ccc(Cl)cc1)c1cc(-c2ccc3c(c2)OCCO3)on1` is inactive: -7.96%; for `O=C(Cn1c(=O)oc2cc(S(=O)(=O)N3CCCCC3)ccc21)NCc1ccc(Cl)cc1` it is inactive: -41%; for `CCCCn1c(=NC(=O)c2cc3ccccc3o2)c(C(=O)OCC)cc2c(=O)n3ccccc3nc21` it is inactive: -12.4%. With `CCn1c(=O)c2cc(C(=O)NCCCN3CCC(C)CC3)sc2c2ccccc21`, the “activation” value is inactive: -16.3%.

With `COC(=O)c1ccccc1NC(=O)c1ccc2nc(CCc3ccccc3)oc2c1`, the “activation” value was inactive: 3.59%.

Regarding `CCN(CC)CCNC(=O)Cn1nc(C)c2c(C)n(-c3ccccc3)nc2c1=O`, the “activation” value is inactive: -17.1%. Under `Cc1cccc(N2CCN(S(=O)(=O)c3ccc4c(c3)CC(=O)N4C)CC2)c1C` stands inactive: -6.46%. Under `COc1ccc(Cn2ccnc2SCC(=O)NCc2ccco2)cc1` stands inactive: -19.3%; under `COc1ccc(-c2onc(C)c2C)cc1S(=O)(=O)NCC1CCN(Cc2cc(C)ccc2C)CC1`, inactive: -3.02%; under `Cc1ccc(Cl)cc1NC(=O)CSc1nc2ccccc2nc1Cc1ccccc1`, inactive: -1.67%. The figure for `COc1cccc(-c2noc(COc3ccccc3Cl)n2)c1` is inactive: -17%; for `COc1ccc(CC2C(=O)Nc3ccc(Br)cc32)cc1OC` (configuration not stated) it is inactive: -15.9%; for `O=C(Nc1ccc(F)c(Cl)c1)C1CCCN(c2cnccn2)C1` (configuration not stated) it is inactive: -8.41%. On to `COc1ccc(NC(=O)CCc2c(C)nc3nc(CNC(=O)OC(C)(C)C)nn3c2C)cc1OC`, for which the “activation” value was inactive: 3.82%. Consider `COc1ccc(S(=O)(=O)NCC(c2ccco2)N2CCN(c3ccc(F)cc3)CC2)cc1C` (configuration not stated), for which the “activation” value was inactive: -14.6%. In the case of `COc1cccc2cc(C(=O)NCCc3c(C)[nH]c4ccc(F)cc34)c(=O)oc12`, the “activation” value was inactive: -18.2%. Under `CC1CCN(S(=O)(=O)c2ccc3c(ccn3CCC(=O)NCc3ccc(N(C)C)cc3)c2)CC1` stands inactive: -9.39%. The figure for `CC(=O)N1CCCC1c1nc2ccccc2n1Cc1ccccc1C` (configuration not stated) is inactive: -24.8%. Under `CCc1ccccc1NC(=O)N1CCN(C(=O)c2nsc3ccccc23)CC1` stands inactive: 4.92%; under `O=C(NCCc1ccccc1)C(=O)NCC(c1ccc2c(c1)OCO2)N1CCOCC1` (configuration not stated), inactive: -3.66%.

In the case of `COc1cc(NC(=O)CC(C)n2nc(C)cc2C)cc(OC)c1` (configuration not stated), the “activation” value was inactive: -13.5%. Consider `CCS(=O)(=O)N1CCc2cc(C(=O)NCCc3ccc(OC)cc3)ccc21`, for which the “activation” value was inactive: -2.17%. The figure for `CC1CCN(S(=O)(=O)c2nnc(NC(=O)c3cccc(Br)c3)s2)CC1` is inactive: -20.7%; for `CCNc1nc(NC(C)(C)C)nc(Oc2ccc(=O)n(C)n2)n1` it is inactive: -2.08%. The figure for `COc1ccc(Cl)cc1NC(=O)CSc1cn(CC(=O)N2CCCCCC2)c2ccccc12` is inactive: -50.6%; for `CCOc1ccccc1C(=O)N(Cc1ccccc1F)C1CCS(=O)(=O)C1` (configuration not stated) it is inactive: -15.6%. The figure for `Cc1ccc(-c2nnc3ccccc3c2C(=O)Nc2ccccc2F)cc1` is inactive: -6.01%; for `Cc1ccc(NC(=O)Cn2c(=O)n(CCC(=O)NCc3ccccc3Cl)c(=O)c3ccccc32)cc1` it is inactive: 7.28%; for `COc1cc(NC(=O)C(CCSC)NS(=O)(=O)c2ccc3c(c2)oc(=O)n3C)cc(OC)c1` (configuration not stated) it is inactive: -6.53%. Turning to `COc1ccc(NC(=O)c2c(NCc3cccc(OC)c3)sc3c2CCCC3)cc1`, the “activation” value is inactive: -17.3%.

For `CC(C)(C)c1ccc(C(=O)N2CCC(c3nc4ccccc4o3)CC2)cc1`, the “activation” value was inactive: -3.66%. The figure for `O=C(CCC1N=C2c3ccccc3N=C(SCc3ccccc3F)N2C1=O)NCc1ccc(F)cc1` (configuration not stated) is inactive: -17.4%.

Take `Cc1ccc2occ(CC(=O)N(Cc3ccc(C(C)C)cc3)C3CCS(=O)(=O)C3)c2c1` (configuration not stated): the “activation” value was inactive: -15.1%.

Consider `CCN1CCc2nc3sc(C(=O)c4ccc(F)cc4)c(N)c3cc2C1`, for which the “activation” value is inactive: -3.99%. Under `Cc1ccc(-n2c(=O)c3c(c4cc(C)ccc4n3C)n(CC(=O)NCc3ccccc3)c2=O)cc1` stands inactive: 2.68%; under `COc1ccccc1NC(=O)CSc1nc(-c2ccccc2F)nc2cc(=O)[nH]n12`, inactive: -4.33%. Under `COc1ccc(CCNc2nc3c(-c4cccc(C)c4)nnn3c3ccccc23)cc1OC` stands inactive: 0.878%; under `COc1ccc(-c2onc(C)c2C)cc1S(=O)(=O)NCC1CCN(Cc2cccc(F)c2)CC1`, inactive: -9.2%; under `CC1=C(c2ccc(Cl)cc2)S(=O)(=O)N=C1N1CCC(C(=O)NCc2ccccc2F)CC1`, inactive: -1.84%. The figure for `CCc1ccc2oc(C(=O)Nc3ccccc3C(=O)OC)cc(=O)c2c1` is inactive: -10.8%; for `CC(CCc1ccc(O)cc1)NCCc1ccc(O)c(O)c1` (configuration not stated) it is inactive: -16.5%.

Consider `CCOc1ccccc1CNC(=O)c1cccn1-c1nnc(N2CCCC2)s1`, for which the “activation” value was inactive: -3.16%. The figure for `COc1ccc(S(=O)(=O)N(CC(=O)Nc2cccnc2)c2ccc(Cl)cc2)cc1` is inactive: -9.52%; for `COc1ccc(CNC(=O)Cn2c(=O)cc(-c3ccccc3)c3c(C)nn(C)c32)cc1` it is inactive: -3.32%. The figure for `COc1ccc(NC(=O)Cn2c(=O)ccc3cc(S(=O)(=O)N4CCCC4)ccc32)cc1Cl` is inactive: 0.457%; for `Clc1cccc(-n2ncc3c(NCCCn4ccnc4)ncnc32)c1` it is inactive: -8.27%; for `Cc1cccc(N2CCN(C(=O)Cn3nc(Cc4cccnc4)c4ccccc4c3=O)CC2)c1C` it is inactive: -7.22%. For the compound `O=C(CCOc1ccccc1)N(Cc1cccnc1)c1nc2c(F)cccc2s1`, the “activation” value was inactive: -25.1%. As for `CCCCn1c(NCc2ccc(N(C)C)cc2)nc2ccccc21`, the “activation” value is inactive: -8.5%. Under `O=C(O)Cn1ccc2cc(S(=O)(=O)N3CCCCCC3)ccc21` stands inactive: -4.62%; under `COc1ccc(CNC(=O)COCc2cc(-c3cccs3)on2)cc1`, inactive: -12%.

For the compound `O=C(Nc1ccc(Cl)c(C(F)(F)F)c1)C1CCN(S(=O)(=O)c2cccc3nonc23)CC1`, the “activation” value is inactive: -5.71%. The figure for `Cc1cccn2c(=O)c(C(=O)NCCc3ccc(S(N)(=O)=O)cc3)c(O)nc12` is inactive: -9.24%. `Cc1ccccc1CSc1cn(CC(=O)N2CCCCCC2)c2ccccc12`: the “activation” value was inactive: -16.6%. The figure for `COC(=O)c1scc(-c2ccc(C)cc2)c1S(=O)(=O)N1CCN(c2ccc(C(C)=O)cc2)CC1` is inactive: -10.1%; for `Cc1ccc(Cl)cc1N1CCN(C(=O)Cn2cnc3sc(C)c(S(=O)(=O)N4CCC(C)CC4)c3c2=O)CC1` it is inactive: -2.54%. Regarding `Cc1nc2nc(NCc3ccc(Cl)cc3)[nH]n2c(=O)c1Cc1ccccc1`, the “activation” value was inactive: 2.69%.

Take `COc1ccc(C2=CC(c3ccccc3Cl)n3nc(-c4ccc(Cl)cc4)nc3N2)cc1` (configuration not stated): the “activation” value is inactive: 2.32%.

For the compound `CCOC(=O)c1c(C)oc2nc(C)nc(NCc3ccc(F)cc3)c12`, the “activation” value was inactive: -11.9%.

Take `CCCn1c(CCC(=O)Nc2ccc(OCC)cc2)nc2cccnc21`: the “activation” value is inactive: -27.7%. With `Cc1ccc(-n2c(=O)c3c(C)c(C)sc3n(CC(=O)NCc3ccccc3)c2=O)cc1C`, the “activation” value is inactive: -9.68%. The figure for `CC1CCc2c(sc(NC(=O)C3c4ccccc4Oc4ccccc43)c2C#N)C1` (configuration not stated) is inactive: -2.19%.

For the compound `Cc1ccc(CNC(=O)CCCn2c(=O)c3ccccc3n(CC(=O)Nc3ccc(C)c(C)c3)c2=O)cc1`, the “activation” value was inactive: -10.7%. Under `CCOc1ccc(CCNC(=O)CCCn2c(=O)c3cccn3c3ccccc32)cc1` stands inactive: -0.163%; under `COc1ccc(C(=O)Nc2nnc(SCc3cc(=O)c4cc(C)cc(C)c4[nH]3)s2)cc1`, inactive: -10.5%; under `CCc1ccccc1NC(=O)CCNS(=O)(=O)c1ccc2c(c1)CCN2C(=O)C1CC1`, inactive: -29.4%. For `Cn1c(=O)c2c(nc(SCC(=O)Nc3ccccc3F)n2Cc2ccc(Cl)cc2)n(C)c1=O`, the “activation” value was inactive: -18.3%.

Take `Cc1ccc(-n2ncc3c(NCCC4=CCCCC4)ncnc32)cc1`: the “activation” value is inactive: -3.18%. The figure for `COC(=O)NCC(c1cccnc1)N1CCN(c2ccc(F)cc2)CC1` (configuration not stated) is inactive: -3.08%; for `Cc1ccc(Cl)cc1NC(=O)C(C)n1nc(-c2ccccc2)ccc1=O` (configuration not stated) it is inactive: -7.55%; for `Cc1c(C(=O)N2CCC(c3nc4ccccc4s3)CC2)oc2ccc(Cl)cc12` it is inactive: -5.13%. Under `Oc1c(C(c2ccccc2F)N2CCN(Cc3ccccc3)CC2)sc2nc(-c3ccco3)nn12` (configuration not stated) stands inactive: -21.1%; under `CC1CCN(CCCC(=O)c2ccc(F)cc2)CC1`, inactive: -21.2%.

On to `CCNC(=O)c1c(NC(=O)Cc2coc3cc(C)cc(C)c23)sc2c1CCCC2`, for which the “activation” value is inactive: -15.8%.

Regarding `COc1ccccc1N1CCN(S(=O)(=O)c2c(C)sc3ncn(CC(=O)N(C)c4ccc(Cl)cc4)c(=O)c23)CC1`, the “activation” value was inactive: -10.1%. Take `COCCn1c(=NC(=O)c2ccc3c(c2)OCCO3)sc2cc(C(=O)OC)ccc21`: the “activation” value was inactive: -12.9%.

Regarding `COc1ccc(C(=O)OC2=C(C(=O)c3ccccc3)N(C)S(=O)(=O)c3ccccc32)cc1OC`, the “activation” value is inactive: -25.3%. Take `Cc1ccc(Cl)cc1NC(=O)Cn1c(=O)oc2cc(S(=O)(=O)N3CCCC3)ccc21`: the “activation” value was inactive: -20.2%.
